# Experimental data reported in the supplement of paper PMC3724861.
# The list shows a part of the results.
# Tested on: T1, Caupolican (Caup) homeodomain DNA-binding domain
# T1 sequence: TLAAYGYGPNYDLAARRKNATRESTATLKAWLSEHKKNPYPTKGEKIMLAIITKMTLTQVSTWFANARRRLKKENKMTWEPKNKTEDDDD
# Experiment: PBM E-score (8-mer, recovered from the published 9-mer minima) (E-score (dimensionless, -0.5 to 0.5)); Drosophila protein; higher = stronger relative binding preference, active = 0.31 or more
# Summary of the method: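 An enrichment score, with higher meaning stronger, expresses relative binding preference for each short DNA word. The protein used was Caup's homeodomain DNA-binding domain (residues 214-303), produced by in vitro transcription and translation and tested at 100 nM on custom-designed protein binding microarrays. The 8-mer values were recovered from published 9-mer scores, each equal to the lower of its two constituent 8-mer scores.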
row,Sequence,PBM E-score
1,AACTATCG,inactive: 0.0761
2,CACGGCTA,inactive: 0.00537
3,CGCTTCAA,inactive: -0.0124
4,GCGCTTTA,inactive: -0.0789
5,CCTTTCGA,inactive: -0.0548
6,ATCTTTTG,inactive: 0.00208
7,ACTACACG,active: ≥ 0.357
8,AGTTCTTC,inactive: -0.0988
9,ACTAAAGC,inactive: 0.0589
10,AAAGCGTA,inactive: -0.0609
11,GCACGATA,inactive: 0.0539
12,TAGATCAA,inactive: 0.104
13,CACATTAA,inactive: 0.201
14,CAATCTGG,inactive: -0.0108
15,AAAGTGAT,inactive: 0.0964
16,GACCCACC,inactive: -0.229
17,AACGCTCC,inactive: -0.0296
18,GATACCCA,inactive: -0.00243
19,ATCAGGCA,≥ 0.0206
20,ACCTCTCT,≥ -0.0265
21,AGCCTGAC,inactive: -0.128
22,GCATGTAA,active: 0.409
23,ATGATTGG,inactive: 0.0539

row,Sequence,PBM E-score
1,GCTACGAA,inactive: 0.0551
2,AAACAGCC,inactive: 0.0543
3,ACTCATCC,inactive: 0.0262
4,CATACCTC,inactive: 0.13
5,AGCGTTCA,inactive: -0.157
6,GGCAAACC,inactive: -0.192
7,GCGGTGAA,inactive: -0.147
8,CATCGGAC,inactive: -0.0156
9,AGCTATGA,inactive: -0.0117
10,AAATCTGA,inactive: 0.105
11,TAACCTCA,inactive: 0.014
12,CACGTATA,inactive: 0.0787
13,ATTAAGCG,inactive: -0.022
14,CCTGGGCA,inactive: -0.202
15,CGTCCGGA,inactive: -0.133
16,ACGTCTAT,inactive: 0.0892
17,CCATCAAG,inactive: -0.0956
18,ACCATCCA,inactive: 0.0462
19,CCCCATGA,inactive: -0.123
20,AGAAAACG,inactive: -0.0622
21,GGACTCCA,inactive: -0.13
22,ATTATATA,inactive: 0.201
23,AGGCCGCA,inactive: -0.146

row,Sequence,PBM E-score
1,CCGACACA,inactive: 0.127
2,GCCGGTGA,inactive: -0.118
3,AATCGCCG,inactive: -0.0738
4,CACCGTCC,inactive: -0.0881
5,CGATATCA,inactive: 0.129
6,ACTGTTCA,inactive: 0.0851
7,AGGTCCAT,inactive: 0.0386
8,CACTCACA,inactive: -0.0111
9,TCGCTAAA,inactive: 0.0105
10,AACGCAGC,inactive: -0.109
11,AAGGTAGT,inactive: 0.0568
12,CGCTTGAG,inactive: -0.188
13,AAGCGACA,inactive: 0.219
14,GACACATA,inactive: 0.264
15,AGGAACTC,inactive: -0.0905
16,AGTAACGA,inactive: 0.107
17,AATTTCGT,inactive: 0.11
18,AGATAAAA,inactive: 0.102
19,CAGCCGCA,inactive: -0.26
20,GCAATCGA,inactive: 0.00674
21,ACCAGCGA,inactive: -0.00099
22,CGGGTAAC,inactive: -0.0112
23,ACGTCATG,inactive: 0.15

row,Sequence,PBM E-score
1,ATTACGCG,inactive: 0.0345
2,ATCCTCAA,inactive: -0.00625
3,ACCTTTGA,≥ 0.0766
4,ATTGACAG,inactive: 0.143
5,GAAAGTCC,inactive: -0.191
6,AAATTAGA,inactive: 0.0875
7,TCCAATCA,inactive: -0.0648
8,CTCGTTGA,inactive: 0.0362
9,CACCGGAA,inactive: 0.0119
10,CCATGTGA,inactive: 0.0957
11,GTATCCAA,inactive: 0.0602
12,GAATTCAC,inactive: 0.00741
13,AGACTCAG,inactive: -0.132
14,AGGACTGC,inactive: -0.157
15,CACCGATG,inactive: 0.08
16,CCCGATTA,inactive: 0.0243
17,GGAGGACC,inactive: -0.246
18,AGATTTTA,inactive: 0.0905
19,GCGAAGCA,inactive: -0.0528
20,CGCAGTTC,inactive: -0.0558
21,AGTAGCCC,inactive: -0.129
22,AGTGGCAT,inactive: -0.0302
23,CCACTAAG,inactive: -0.0833

row,Sequence,PBM E-score
1,CTTCGGGC,inactive: -0.167
2,GGTACTAC,inactive: 0.202
3,CACACCAG,inactive: 0.004
4,AATCCCCA,inactive: 0.0171
5,ACGACGCA,≥ 0.0334
6,CGGACTAA,inactive: 0.00339
7,AGTTTTGC,inactive: 0.11
8,TAGCTAAA,inactive: -0.0173
9,GGGAAGAC,inactive: -0.0997
10,AGGGATGG,inactive: -0.126
11,CTGCACAG,inactive: -0.0769
12,ACAGACCA,inactive: 0.0424
13,ATAGAACC,inactive: -0.103
14,CAGAGGAC,inactive: -0.0306
15,ACTAGTAT,inactive: 0.243
16,CCGGAGAC,inactive: -0.0838
17,ACGGATCT,inactive: 0.0142
18,GTGGGCGA,inactive: -0.0754
19,GTATTCGA,inactive: -0.00876
